Reference: paper PMC4336329 (PLoS ONE, 2015)
The whole screen tested about 310,000 compounds, of which about 14,000 (4.5%) showed an effect of 50% or more. Effects have a minus sign here. The list shows a part of the results.

What follows are compounds tested against human ether-à-go-go-related gene (hERG) potassium channel (human, UniProt Q12809) (assay: primary screen, population patch clamp on CHO cells stably expressing hERG).
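Note: peak tail current of the secondary pulse compared with the same well before compound.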

Chain of human ether-à-go-go-related gene (hERG) potassium channel (Q12809 whole entry, looked up): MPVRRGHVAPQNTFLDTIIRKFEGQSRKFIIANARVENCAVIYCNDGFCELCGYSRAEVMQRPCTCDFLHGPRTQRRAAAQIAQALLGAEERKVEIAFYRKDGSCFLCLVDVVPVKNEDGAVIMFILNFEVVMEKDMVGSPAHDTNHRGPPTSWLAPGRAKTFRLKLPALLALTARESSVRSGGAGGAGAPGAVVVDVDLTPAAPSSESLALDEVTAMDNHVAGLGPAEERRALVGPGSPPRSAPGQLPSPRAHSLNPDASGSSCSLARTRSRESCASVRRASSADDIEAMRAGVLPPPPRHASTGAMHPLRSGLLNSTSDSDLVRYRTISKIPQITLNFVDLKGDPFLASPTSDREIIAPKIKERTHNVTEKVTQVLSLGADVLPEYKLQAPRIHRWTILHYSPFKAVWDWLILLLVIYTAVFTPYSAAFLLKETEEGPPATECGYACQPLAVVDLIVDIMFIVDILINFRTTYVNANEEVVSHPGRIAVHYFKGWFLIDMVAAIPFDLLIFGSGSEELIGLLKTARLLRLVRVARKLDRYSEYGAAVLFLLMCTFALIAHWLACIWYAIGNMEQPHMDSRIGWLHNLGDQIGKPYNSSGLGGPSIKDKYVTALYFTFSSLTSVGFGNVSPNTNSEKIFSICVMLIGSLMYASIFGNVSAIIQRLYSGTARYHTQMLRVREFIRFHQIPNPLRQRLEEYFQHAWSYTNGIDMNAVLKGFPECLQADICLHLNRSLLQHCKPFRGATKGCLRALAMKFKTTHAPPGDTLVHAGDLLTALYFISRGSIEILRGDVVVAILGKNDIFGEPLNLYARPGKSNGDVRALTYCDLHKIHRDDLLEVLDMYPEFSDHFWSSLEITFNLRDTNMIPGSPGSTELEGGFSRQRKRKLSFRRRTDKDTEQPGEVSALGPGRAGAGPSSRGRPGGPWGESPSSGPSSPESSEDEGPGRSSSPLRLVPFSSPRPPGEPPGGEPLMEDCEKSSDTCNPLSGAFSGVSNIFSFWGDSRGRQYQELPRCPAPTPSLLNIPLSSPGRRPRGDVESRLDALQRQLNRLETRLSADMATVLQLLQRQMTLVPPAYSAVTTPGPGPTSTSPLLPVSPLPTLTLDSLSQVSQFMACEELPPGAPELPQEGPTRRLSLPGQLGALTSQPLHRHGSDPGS

SMILES | hERG current change (%, negative = inhibition) at 10uM [%]
O=C(N=C1SC2CS(=O)(=O)CC2N1c1cccc(Cl)c1)C1CCCO1 (stereo not drawn) | 7.77
CCOC(=O)c1cc2sc(C)cc2n1CC(=O)N1CCc2ccccc21 | 1.44
CCCN(CCC)CCCNC(=O)Cn1cnc2sc(C)c(S(=O)(=O)N3CCOCC3)c2c1=O | 23.6
COc1ccc(N2C(=NC(=O)C3CCCCC3)SC3CS(=O)(=O)CC32)c(OC)c1 (stereo not drawn) | -7.61
Cn1c(=O)oc2cc(S(=O)(=O)NCCN3CCc4ccccc4C3)ccc21 | -6.67
NC(=O)NS(=O)(=O)Oc1ccccc1 | 14.1
Cl.NS(=O)(=O)c1ccc(CCNCc2cccs2)cc1 | 4.04
O=C(CN1CCC(Cc2ccccc2)CC1)NCCc1ccc(F)cc1 | -32.6
O=C(C1CCCN(S(=O)(=O)c2ccc(F)cc2)C1)N1CCCCC1 (stereo not drawn) | 6.09
Cc1nc(C)n(C(C)CNC(=O)c2ccco2)n1 (stereo not drawn) | 9.18
CCC(C)(C)NC(=O)CSc1nc(Cc2ccccc2)nc2ccccc12 | 11.5
CN1CCN(S(=O)(=O)c2cccc(C(=O)Nc3ccccc3N3CCCC3)c2)CC1 | -17.2
COc1cccc(C(=O)C2CN(c3ccccc3)CC2c2ccc(Cl)cc2)c1 (stereo not drawn) | 5.04
O=C(CN1CCN(S(=O)(=O)c2ccc(F)c(Cl)c2)CC1)N1CCNC1=O | -1.79
O=C(NCCC1=CCCCC1)C(=O)NCc1ccccc1Cl | 3.98
COc1ccc(-c2cc(C(=O)OCC(=O)Nc3cc(C)on3)c3ccccc3n2)cc1OC | 6.5
O=C(Nc1scc(-c2ccccc2)c1C(=O)O)c1ccco1 | -0.991
Cc1ccc(/C=C(/C#N)C(=O)NC(=O)Oc2ccccc2)cc1 | 12.4
CN(C(=O)CN1C(=O)S/C(=C\c2ccccc2)C1=O)C1CCS(=O)(=O)C1 (stereo not drawn) | 2.1
COc1ccccc1NC(=O)C(C)OC(=O)CN1C(=O)C2CC=CCC2C1=O (stereo not drawn) | -39.2
CSC(=Nc1ccccc1)c1c(O)n(C)c(=O)n(C)c1=O | 1.79
Cc1ccc(OCC(=O)Nc2ccc(N3CCN(C(=O)c4ccco4)CC3)cc2)cc1C | -22
Cc1ccccc1-n1ccnc1SCC(=O)NCC1CCCO1 (stereo not drawn) | 15.3

SMILES | hERG current change (%, negative = inhibition) at 10uM [%]
Cc1ccc(-c2cc3ccccc3nc2N)cc1 | 6.94
COc1ccc(C2(c3ccc(OC(C)=O)cc3OC(C)=O)CC(c3ccccc3)NC(=S)N2)cc1 (stereo not drawn) | -50.2
O=C(OCC(=O)N1CCN(C(=O)c2ccco2)CC1)c1cccc(O)c1 | 13.3
COc1ccc(C2=NS(=O)(=O)N(C)C(C(=O)Nc3ccc4c(c3)OCO4)=C2)cc1 | -4.37
CC(C)C(=O)N(c1ccc2oc(=O)sc2c1)S(=O)(=O)c1cccs1 | 12.8
CCCn1c(SCC#N)nc2c(c1=O)C1(CCCC1)Cc1ccccc1-2 | 8.66
Cc1occc1C(=O)Nc1c(F)c(F)c(F)c(F)c1F | -7.14
CCCc1[nH]c2ccc(C(=O)OC)cc2c1CCC | 13.7
COc1ccc(C2CC(=O)n3c(nc4ccccc43)S2)cc1OC (stereo not drawn) | 13.7
N#Cc1cccc(NC(=O)Cn2cnc(S(=O)(=O)N3CCc4ccccc43)c2)c1 | -3.85
COc1ccc(C(NCC(=O)NC(C)c2ccc(Cl)cc2)c2ccccc2)cc1 (stereo not drawn) | 12
CCOc1cc(/C=C2/C(=N)N3C(=NC2=O)SN=C3S(=O)(=O)CC)ccc1OC(=O)c1ccco1 | 5.22
CCOc1c(Cl)cc(CNC(C)C(O)c2ccccc2)cc1OC.Cl (stereo not drawn) | -11.8
Cc1cc(C)c(C)c(OCCCN(C)C)c1.O=C(O)C(=O)O | -20.3
COc1cc2c(-c3ccc4cc[nH]c4c3)c(-c3ccsc3)oc(=O)c2cc1OC | 10.2
CCNC(=S)N1CCN(CCN=CC2=C(O)CC(C)(C)CC2=O)CC1 | -9.75
COc1ccc(NC(=O)c2cc(-c3cccs3)on2)cc1OC | 6.67
Fc1cccc(COc2ccccc2C(=S)N2CCCC2)c1 | 6.27
CCOc1ccc(S(=O)(=O)Nc2ccc(C(=O)NN)cc2)cc1 | 3.92
Cc1ccc2c(c1)N(CC(=O)NCCCN1CCOCC1)C(=O)c1cccnc1O2 | 0.529
c1ccc(CSCc2ccccc2)cc1 | 0.734
N=C1C(c2nc3ccccc3c(=O)[nH]2)=C(O)CN1CCO | 16.3
